# For some of these results: What follows is the remainder of the data, with few or none of the strong results. This is a selection; strong and weak results do not stand in their true shares.
# Assays:
# [1] = target: Tyrosine-protein kinase CSK (Homo sapiens) (UniProt P41240); conditions: at 1 µM;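 also: each value is an averaged inhibition reading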
# [2] = target: T1, Discoidin domain-containing receptor 2 (Homo sapiens) (UniProt Q16832); conditions: at 0.1 µM
# T1 sequence (whole entry): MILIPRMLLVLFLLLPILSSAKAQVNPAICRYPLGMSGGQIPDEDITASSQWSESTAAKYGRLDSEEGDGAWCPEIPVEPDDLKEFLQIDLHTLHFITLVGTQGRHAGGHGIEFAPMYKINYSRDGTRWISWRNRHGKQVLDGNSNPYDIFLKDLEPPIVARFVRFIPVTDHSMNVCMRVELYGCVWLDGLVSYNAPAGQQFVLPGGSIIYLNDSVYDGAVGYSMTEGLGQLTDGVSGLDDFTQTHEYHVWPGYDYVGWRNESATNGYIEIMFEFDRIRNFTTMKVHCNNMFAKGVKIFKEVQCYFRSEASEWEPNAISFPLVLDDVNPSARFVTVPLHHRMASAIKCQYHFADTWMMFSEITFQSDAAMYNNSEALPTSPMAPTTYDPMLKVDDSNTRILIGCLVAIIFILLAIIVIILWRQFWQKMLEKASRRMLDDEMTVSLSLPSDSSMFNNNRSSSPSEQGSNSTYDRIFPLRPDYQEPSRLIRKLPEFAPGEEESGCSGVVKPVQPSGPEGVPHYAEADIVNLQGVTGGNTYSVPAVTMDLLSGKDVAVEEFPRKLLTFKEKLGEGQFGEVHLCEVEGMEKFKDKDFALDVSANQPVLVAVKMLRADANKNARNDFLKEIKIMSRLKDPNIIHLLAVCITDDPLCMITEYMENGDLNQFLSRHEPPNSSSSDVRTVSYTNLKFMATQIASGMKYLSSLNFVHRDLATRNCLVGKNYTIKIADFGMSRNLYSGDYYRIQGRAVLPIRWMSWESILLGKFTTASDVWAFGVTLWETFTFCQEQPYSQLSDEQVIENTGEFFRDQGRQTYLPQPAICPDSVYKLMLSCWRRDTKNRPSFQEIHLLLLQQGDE
# [3] = target: T1, Discoidin domain-containing receptor 2 (Homo sapiens); conditions: at 1 µM
# [4] = target: Epidermal growth factor receptor (Homo sapiens) (UniProt P00533); conditions: at 0.1 µM
# [5] = target: Epidermal growth factor receptor (Homo sapiens) (UniProt P00533); conditions: at 1 µM
# [6] = test system: Epidermal growth factor receptor (Homo sapiens), P00533 [L858R]; conditions: at 0.1 µM
# [7] = test system: Epidermal growth factor receptor (Homo sapiens), P00533 [L858R]; conditions: at 1 µM
# [8] = test system: Epidermal growth factor receptor (Homo sapiens), P00533 [L861Q]; conditions: at 0.1 µM
# [9] = test system: Epidermal growth factor receptor (Homo sapiens), P00533 [L861Q]; conditions: at 1 µM
# [10] = test system: Epidermal growth factor receptor (Homo sapiens), P00533 [T790M]; conditions: at 0.1 µM
# [11] = test system: Epidermal growth factor receptor (Homo sapiens), P00533 [T790M]; conditions: at 1 µM
# [12] = test system: Epidermal growth factor receptor (Homo sapiens), P00533 [L858R,T790M]; conditions: at 0.1 µM
# [13] = test system: Epidermal growth factor receptor (Homo sapiens), P00533 [L858R,T790M]; conditions: at 1 µM
# [14] = target: Ephrin type-A receptor 2 (Homo sapiens) (UniProt P29317); conditions: at 0.1 µM
# [15] = target: Ephrin type-A receptor 2 (Homo sapiens) (UniProt P29317); conditions: at 1 µM
# [16] = target: T2, Ephrin type-A receptor 3 (Homo sapiens) (UniProt P29320); conditions: at 0.1 µM
# T2 sequence (whole entry): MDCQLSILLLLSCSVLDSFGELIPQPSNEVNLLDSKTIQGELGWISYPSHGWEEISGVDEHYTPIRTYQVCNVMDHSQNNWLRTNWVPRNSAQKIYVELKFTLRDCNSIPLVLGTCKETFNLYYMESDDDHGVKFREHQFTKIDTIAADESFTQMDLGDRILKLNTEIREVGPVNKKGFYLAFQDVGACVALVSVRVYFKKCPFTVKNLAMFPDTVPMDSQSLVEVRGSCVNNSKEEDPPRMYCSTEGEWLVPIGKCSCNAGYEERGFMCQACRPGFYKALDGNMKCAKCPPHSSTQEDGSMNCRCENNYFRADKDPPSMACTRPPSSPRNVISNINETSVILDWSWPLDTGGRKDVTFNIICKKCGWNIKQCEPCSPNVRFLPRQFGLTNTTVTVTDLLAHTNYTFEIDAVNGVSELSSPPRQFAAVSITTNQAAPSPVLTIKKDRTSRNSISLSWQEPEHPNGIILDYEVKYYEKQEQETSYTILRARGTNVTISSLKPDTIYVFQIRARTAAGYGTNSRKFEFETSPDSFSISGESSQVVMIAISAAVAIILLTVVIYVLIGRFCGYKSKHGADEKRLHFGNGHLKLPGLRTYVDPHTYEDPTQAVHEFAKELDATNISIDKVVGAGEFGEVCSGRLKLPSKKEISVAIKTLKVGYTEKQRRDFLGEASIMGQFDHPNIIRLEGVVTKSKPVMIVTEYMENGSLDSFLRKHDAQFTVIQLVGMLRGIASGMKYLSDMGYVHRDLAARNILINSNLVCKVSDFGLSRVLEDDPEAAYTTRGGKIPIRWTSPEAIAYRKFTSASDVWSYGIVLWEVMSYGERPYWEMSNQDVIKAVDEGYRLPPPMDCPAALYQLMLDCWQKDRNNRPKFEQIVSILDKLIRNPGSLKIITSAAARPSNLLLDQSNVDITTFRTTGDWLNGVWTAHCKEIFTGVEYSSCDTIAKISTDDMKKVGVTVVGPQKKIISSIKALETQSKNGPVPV
# [17] = target: T2, Ephrin type-A receptor 3 (Homo sapiens); conditions: at 1 µM
# [18] = target: Ephrin type-A receptor 4 (Homo sapiens) (UniProt P54764); conditions: at 0.1 µM
# [19] = target: Ephrin type-A receptor 4 (Homo sapiens) (UniProt P54764); conditions: at 1 µM
# [20] = target: T3, Ephrin type-B receptor 2 (Homo sapiens) (UniProt P29323); conditions: at 0.1 µM;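 also: reported as mean inhibition of EPHB2, from the GSK PKIS dataset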
# T3 sequence (whole entry): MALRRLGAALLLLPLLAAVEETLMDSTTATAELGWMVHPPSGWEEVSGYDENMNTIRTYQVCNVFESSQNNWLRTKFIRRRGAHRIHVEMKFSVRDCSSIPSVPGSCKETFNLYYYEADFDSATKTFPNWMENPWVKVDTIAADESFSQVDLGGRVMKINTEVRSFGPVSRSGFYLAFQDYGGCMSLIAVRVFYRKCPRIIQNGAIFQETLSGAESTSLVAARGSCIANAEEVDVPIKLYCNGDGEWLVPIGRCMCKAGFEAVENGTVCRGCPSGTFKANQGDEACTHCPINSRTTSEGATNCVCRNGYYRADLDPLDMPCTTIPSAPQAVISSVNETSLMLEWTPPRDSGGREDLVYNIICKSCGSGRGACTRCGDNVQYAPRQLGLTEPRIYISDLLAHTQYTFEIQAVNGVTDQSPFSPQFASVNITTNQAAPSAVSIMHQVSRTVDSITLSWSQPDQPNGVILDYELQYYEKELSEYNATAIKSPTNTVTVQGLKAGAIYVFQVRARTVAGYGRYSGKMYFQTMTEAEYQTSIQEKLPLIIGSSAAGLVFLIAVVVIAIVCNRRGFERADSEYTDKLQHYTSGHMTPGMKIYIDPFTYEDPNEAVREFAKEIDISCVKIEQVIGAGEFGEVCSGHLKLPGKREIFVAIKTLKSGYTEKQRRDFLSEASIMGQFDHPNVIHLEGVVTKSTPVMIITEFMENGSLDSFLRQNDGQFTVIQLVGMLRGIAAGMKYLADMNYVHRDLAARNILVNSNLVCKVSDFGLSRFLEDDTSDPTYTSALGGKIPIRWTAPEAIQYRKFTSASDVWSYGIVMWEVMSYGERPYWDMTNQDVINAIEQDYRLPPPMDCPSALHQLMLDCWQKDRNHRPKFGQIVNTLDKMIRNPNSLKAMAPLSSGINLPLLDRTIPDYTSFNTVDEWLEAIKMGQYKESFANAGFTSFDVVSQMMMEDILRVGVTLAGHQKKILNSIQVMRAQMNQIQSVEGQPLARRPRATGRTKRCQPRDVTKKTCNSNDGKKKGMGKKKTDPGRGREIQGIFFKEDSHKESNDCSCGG
# Chain of UniProt P41240 (P41240 whole entry, looked up, the tested form may be a part): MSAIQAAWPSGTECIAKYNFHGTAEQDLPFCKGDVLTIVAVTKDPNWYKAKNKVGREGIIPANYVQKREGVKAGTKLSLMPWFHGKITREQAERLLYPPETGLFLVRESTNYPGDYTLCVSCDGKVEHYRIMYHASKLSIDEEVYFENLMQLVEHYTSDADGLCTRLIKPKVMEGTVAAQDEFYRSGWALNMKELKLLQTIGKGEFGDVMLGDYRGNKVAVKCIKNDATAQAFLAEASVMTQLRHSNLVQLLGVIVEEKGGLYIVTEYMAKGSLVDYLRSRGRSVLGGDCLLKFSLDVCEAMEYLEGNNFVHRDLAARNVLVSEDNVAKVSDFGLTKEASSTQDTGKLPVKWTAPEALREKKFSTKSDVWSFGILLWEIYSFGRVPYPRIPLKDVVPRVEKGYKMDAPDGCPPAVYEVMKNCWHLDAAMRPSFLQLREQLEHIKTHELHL
# Chain of UniProt P00533 (P00533 whole entry): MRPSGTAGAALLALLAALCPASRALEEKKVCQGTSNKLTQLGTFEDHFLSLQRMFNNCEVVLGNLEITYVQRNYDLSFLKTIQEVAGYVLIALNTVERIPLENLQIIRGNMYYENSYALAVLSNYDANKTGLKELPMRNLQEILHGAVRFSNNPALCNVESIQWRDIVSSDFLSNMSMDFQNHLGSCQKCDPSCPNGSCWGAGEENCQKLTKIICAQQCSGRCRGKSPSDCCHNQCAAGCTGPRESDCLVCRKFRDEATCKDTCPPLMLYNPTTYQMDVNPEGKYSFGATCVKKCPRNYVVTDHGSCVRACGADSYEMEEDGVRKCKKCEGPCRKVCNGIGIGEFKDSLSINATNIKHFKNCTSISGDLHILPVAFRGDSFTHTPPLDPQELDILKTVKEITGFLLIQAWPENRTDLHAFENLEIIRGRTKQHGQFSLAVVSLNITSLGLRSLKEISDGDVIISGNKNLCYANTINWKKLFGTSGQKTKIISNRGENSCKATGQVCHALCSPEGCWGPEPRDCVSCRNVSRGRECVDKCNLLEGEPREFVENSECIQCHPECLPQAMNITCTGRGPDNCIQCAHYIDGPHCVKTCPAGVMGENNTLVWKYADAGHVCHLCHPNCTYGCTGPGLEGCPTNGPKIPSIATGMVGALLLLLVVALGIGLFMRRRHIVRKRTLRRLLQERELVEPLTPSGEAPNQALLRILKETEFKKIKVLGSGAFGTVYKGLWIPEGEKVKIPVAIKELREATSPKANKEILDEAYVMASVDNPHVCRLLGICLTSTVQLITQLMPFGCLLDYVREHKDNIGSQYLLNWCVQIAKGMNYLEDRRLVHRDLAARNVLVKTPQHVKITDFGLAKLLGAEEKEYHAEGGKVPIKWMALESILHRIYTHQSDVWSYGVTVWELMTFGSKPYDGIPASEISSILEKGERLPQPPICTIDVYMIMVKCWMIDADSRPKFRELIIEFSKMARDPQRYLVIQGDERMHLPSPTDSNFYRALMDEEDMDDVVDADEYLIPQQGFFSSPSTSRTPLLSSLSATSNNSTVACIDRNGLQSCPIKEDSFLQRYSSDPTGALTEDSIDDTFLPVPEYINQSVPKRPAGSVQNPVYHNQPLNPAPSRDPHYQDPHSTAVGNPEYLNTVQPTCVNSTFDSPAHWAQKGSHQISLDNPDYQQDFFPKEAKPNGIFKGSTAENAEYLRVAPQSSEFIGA
# Chain of UniProt P29317 (P29317 whole entry): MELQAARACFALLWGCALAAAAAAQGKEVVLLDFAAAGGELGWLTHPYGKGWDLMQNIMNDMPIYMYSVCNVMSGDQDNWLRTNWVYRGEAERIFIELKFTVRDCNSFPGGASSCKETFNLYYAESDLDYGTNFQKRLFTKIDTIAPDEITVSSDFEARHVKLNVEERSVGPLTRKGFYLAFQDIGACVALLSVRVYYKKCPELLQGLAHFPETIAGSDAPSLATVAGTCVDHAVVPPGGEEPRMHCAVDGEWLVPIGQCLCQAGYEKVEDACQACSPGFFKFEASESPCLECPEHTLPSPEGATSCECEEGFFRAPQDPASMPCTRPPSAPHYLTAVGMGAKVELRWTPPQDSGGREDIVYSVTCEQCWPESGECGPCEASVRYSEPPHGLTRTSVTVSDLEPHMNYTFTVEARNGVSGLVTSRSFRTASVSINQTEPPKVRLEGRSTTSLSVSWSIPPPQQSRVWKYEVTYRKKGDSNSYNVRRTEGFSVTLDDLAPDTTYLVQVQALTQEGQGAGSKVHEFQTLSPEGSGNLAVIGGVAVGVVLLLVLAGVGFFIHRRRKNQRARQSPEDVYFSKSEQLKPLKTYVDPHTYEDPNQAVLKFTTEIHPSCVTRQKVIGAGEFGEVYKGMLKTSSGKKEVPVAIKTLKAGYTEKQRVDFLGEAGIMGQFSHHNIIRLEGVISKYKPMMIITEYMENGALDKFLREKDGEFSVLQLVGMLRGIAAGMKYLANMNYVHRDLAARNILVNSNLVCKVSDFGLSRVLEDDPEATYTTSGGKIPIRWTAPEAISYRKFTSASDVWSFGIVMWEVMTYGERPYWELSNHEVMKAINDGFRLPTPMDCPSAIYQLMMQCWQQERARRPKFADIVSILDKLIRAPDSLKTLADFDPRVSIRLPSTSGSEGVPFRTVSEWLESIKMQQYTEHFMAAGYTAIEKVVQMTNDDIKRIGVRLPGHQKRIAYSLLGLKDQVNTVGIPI
# Chain of UniProt P54764 (P54764 whole entry): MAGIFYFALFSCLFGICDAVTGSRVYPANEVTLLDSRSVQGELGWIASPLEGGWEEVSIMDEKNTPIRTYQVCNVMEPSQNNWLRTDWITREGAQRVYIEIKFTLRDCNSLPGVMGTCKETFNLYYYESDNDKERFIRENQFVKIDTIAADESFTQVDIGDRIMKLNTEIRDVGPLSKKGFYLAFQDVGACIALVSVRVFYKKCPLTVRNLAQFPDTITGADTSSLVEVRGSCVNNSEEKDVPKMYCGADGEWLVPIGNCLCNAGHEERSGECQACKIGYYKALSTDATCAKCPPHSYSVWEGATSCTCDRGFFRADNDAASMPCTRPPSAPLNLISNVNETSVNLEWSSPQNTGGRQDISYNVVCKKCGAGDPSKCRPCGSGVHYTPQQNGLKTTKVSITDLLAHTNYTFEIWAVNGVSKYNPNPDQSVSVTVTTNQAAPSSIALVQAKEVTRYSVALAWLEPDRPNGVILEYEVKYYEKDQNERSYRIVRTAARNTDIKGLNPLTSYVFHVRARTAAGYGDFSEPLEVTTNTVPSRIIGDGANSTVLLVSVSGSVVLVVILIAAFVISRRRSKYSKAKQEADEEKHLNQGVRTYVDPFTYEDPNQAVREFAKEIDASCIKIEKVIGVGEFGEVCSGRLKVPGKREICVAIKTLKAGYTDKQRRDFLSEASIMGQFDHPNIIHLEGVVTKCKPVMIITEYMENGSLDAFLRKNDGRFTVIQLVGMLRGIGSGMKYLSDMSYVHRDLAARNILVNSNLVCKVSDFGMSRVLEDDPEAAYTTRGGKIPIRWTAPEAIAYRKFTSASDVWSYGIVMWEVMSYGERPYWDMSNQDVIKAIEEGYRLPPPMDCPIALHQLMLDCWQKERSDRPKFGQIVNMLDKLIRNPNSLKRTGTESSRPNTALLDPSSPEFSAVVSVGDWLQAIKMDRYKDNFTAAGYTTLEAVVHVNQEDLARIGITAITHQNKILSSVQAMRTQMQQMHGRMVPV
Compound,inhibition [1] [%],inhibition [2] [%],inhibition [3] [%],inhibition [4] [%],inhibition [5] [%],inhibition [6] [%],inhibition [7] [%],inhibition [8] [%],inhibition [9] [%],inhibition [10] [%],inhibition [11] [%],inhibition [12] [%],inhibition [13] [%],inhibition [14] [%],inhibition [15] [%],inhibition [16] [%],inhibition [17] [%],inhibition [18] [%],inhibition [19] [%],inhibition [20] [%]
Fc1ccc(Oc2nccc(-c3c(-c4ccc(F)cc4)ncn3C3CCNCC3)n2)cc1,3,2.89,1.5,-3,-0.87,2.26,4.51,3.85,3.23,1.97,2.34,4.69,2.21,-1.1,-1.71,-2.65,-0.09,6.49,8.07,7
O=C1NC(=O)C(c2ccccc2Cl)=C1Nc1cc(Cl)c(O)c(Cl)c1,11.5,5.07,4.45,2.04,0.23,4.81,9.31,3.34,4.23,2.96,4.23,3.01,3.64,3.32,1.83,1.8,3.6,8.3,12,6.07
COc1ccccc1Oc1nccc(-c2c(-c3ccc(F)cc3)ncn2C2CCNCC2)n1,3.61,0.64,1.03,7.14,9.34,3.76,4.88,3.48,4.22,1.71,1.84,2.02,0.34,0.33,0.02,–,5.04,7.94,11.4,9.03
O=C1NC(=O)C(c2cccc([N+](=O)[O-])c2)=C1Nc1cc(Cl)c(O)c(Cl)c1,0.7,0.6,1.09,-1.1,1.18,1.44,0.45,0.79,0.25,-0.19,-1.04,0.58,-4.23,1.65,-0.45,2.74,1.24,0.6,1.76,–
Fc1ccc(-c2ncn(C3CCNCC3)c2-c2ccnc(Oc3ccc(Cl)cc3)n2)cc1,-0.81,-0.11,0.47,6.48,7.82,2.38,4.45,0.88,2.63,0.03,0.38,-1.44,1.67,-3.79,-2.87,-2.51,-1.43,-0.62,2.11,5.34
COc1ccccc1C1=C(Nc2ccccc2)C(=O)NC1=O,5.49,3.1,9.17,1.41,1.39,1.11,0.26,1.64,1.68,1.2,2.58,1.03,1.71,1.18,0.6,3.37,4.46,8.15,13.4,5.38
O=C1NC(=O)C(c2ccccc2)=C1Nc1ccccc1,3.51,1.88,3.14,8.49,10.7,6.9,5.64,3.64,5.01,2.78,6.06,7.55,2.97,1.09,0.95,6.11,5.22,11.1,14.8,7.07
Fc1ccc(-c2ncn(C3CCNCC3)c2-c2ccnc(Oc3cccc(F)c3)n2)cc1,–,0.54,3.86,2.42,7.82,4.39,14.7,4.22,8.74,2.03,2.06,4,5.17,0.84,0.25,4.48,6.01,7.86,12,8.19
NC(=O)CCc1ccccc1Oc1nccc(-c2c(-c3ccc(F)cc3)ncn2C2CCNCC2)n1,-3.23,0.1,0.52,3.5,4.57,-0.86,6.23,-0.75,-1.05,0.37,0.13,1.63,1.13,-3.79,-2.96,-7.44,-7.43,-8.27,-5.77,-3.48
CC(C)(C)c1ccc(Oc2nccc(-c3c(-c4ccc(F)cc4)ncn3C3CCNCC3)n2)cc1,2.93,6.73,45.8,7.7,9.47,1.78,11.4,4.25,7.41,1.07,3.64,2.33,1.72,-1.82,-2.37,2.7,3.81,7.05,9.82,8.19
Cc1cccc(Oc2nccc(-c3c(-c4ccc(F)cc4)ncn3C3CCNCC3)n2)c1C,2.22,2.03,2.55,0.75,–,5.39,35.3,1.98,9.12,1.66,2.18,1.61,6.91,1.32,0.66,1.54,3,5.4,8.41,5.48
CS(=O)(=O)c1ccc(Oc2nccc(-c3c(-c4ccc(F)cc4)ncn3C3CCNCC3)n2)cc1,2.01,2.29,4.56,0.66,5.48,1.08,3,3.15,3.64,0.7,3.13,2.94,-1.42,1.96,0.6,2.49,2.77,7.19,10.1,6.94
Fc1ccc(-c2ncn(C3CCNCC3)c2-c2ccnc(Oc3cccc(C(F)(F)F)c3)n2)cc1,5.55,2.39,2.26,0.99,5.74,3.27,10.1,4.1,4.4,3.65,3.29,1.8,2.7,1.29,1.66,5.83,–,8.26,12.2,11.9
O=C(O)c1ccc(Oc2nccc(-c3c(-c4ccc(F)cc4)ncn3C3CCNCC3)n2)cc1,3.23,1.01,0.98,1.34,2.03,4.05,4.01,2.48,3.68,2.06,2.74,-0.31,2.26,2.07,1.28,1.21,2.84,–,8.32,8.65

# Source: ChEMBL document CHEMBL1961873, “Compounds: GSK PKIS; Assays: Nanosyn kinase panel” (2012)
